Test results from paper PMC11660155.

Assays:
[1] = molecular target: scCSGal-1–6H M120L wt-ran-bio (human)
[2] = molecular target: scCSGal-1–6H M120L E137AzK-ran-bio (human); experiment: BLI; Octet RED96e; streptavidin tips loaded with 60 ug/mL biotinylated scCSGal-1 protein; vWF at 25 ug/mL as analyte; association 600 s, dissociation 150 s; PBS with 0.05% Tween 20 and 0.1% BSA, pH 7.4; 25 °C, 1000 rpm; read-out Rt = response at 600 s
[3] = molecular target: scCSGal-1–6H M120L E137AzK-ss-bio (human); experiment: as above
[4] = molecular target: scCSGal-1–6H M120L E138AzK-ss-bio (human); experiment: as above
[5] = molecular target: scCSGal-1–6H M120L N144AzK-ss-bio (human); experiment: as above
[6] = molecular target: scCSGal-1–6H M120L N50AzK-ss-bio (human); experiment: as above
[7] = molecular target: scCSGal-1–6H M120L wt-ran-bio (human); experiment: as above

## von Willebrand factor (from UniProt P04275 764-2813) (natural protein)
[1]
  BLI response at 160 ug/mL vWF: < 0.06 nm
[2]
  Rt (specific BLI response at 600 s): 0.062 nm
[3]
  Rt (specific BLI response at 600 s): 0.58 nm
[4]
  Rt (specific BLI response at 600 s): 0.23 nm
[5]
  Rt (specific BLI response at 600 s): 0.4 nm
[6]
  Rt (specific BLI response at 600 s): 0.051 nm
[7]
  Rt (specific BLI response at 600 s): 0.049 nm
  Rt (specific BLI response at 600 s; reproducibility test, n = 8): 0.049 nm
